According to the supplement of paper PMC11417369:
± gives the standard deviation of the averaged measurements. Some of the results follow.

Each sequence was assayed on PfAP2-I AP2 domain 3 (GST-tagged) (assay: gcPBM binding intensity (ln(normalized median fluorescence intensity)); higher = stronger DNA binding).
Outline: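 Binding of GST-tagged P. falciparum DNA-binding domains, expressed in E. coli and used at about 25 μg on average, was carried out for 1 h in 1× PBS containing 1% milk, 0.2 mg/ml BSA, 0.5% salmon testes DNA and 0.03% Triton X-100. The target was an Agilent 4 × 180k array of primer-extended double-stranded 36-bp intergenic genomic probes plus negative controls, read with Alexa488 anti-GST antibody at 488 nm. Binding intensity is the highest Masliner-normalised natural-log median intensity across replicate spots of either probe orientation.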
For “TAGTGTATGATAATATGTACATACATTTATATAATA [XGTACX_site6330]”, the “gcPBM binding intensity (ln)” value was 7.83 ± 0.28.
With “CATAATATGTGGACTTTACACACTTGTTTTAAAATT [CACACA_site819]” the “gcPBM binding intensity (ln)” value was 7.78 ± 0.55.
With “AATAATAAAAAATACACACACATATAAATATATTAC [CACACA_site7597]” the “gcPBM binding intensity (ln)” value was 7.61 ± 0.58.
With “CATATAAAGATATGAACACACAAAAAGAATATTTCC [CACACA_site6811]” the “gcPBM binding intensity (ln)” value was 7.61 ± 0.76.
With “TTCCGAACGACCTAAAGTACATGTATTTCAACTTTT [XGTACX_site1220]” the “gcPBM binding intensity (ln)” value was 7.5 ± 0.52.
“AGGACACATATATGCAAAAAAAAAAAAAAAAAAAAA [TGCATGCA_negctrl_site427]” was tested, and the “gcPBM binding intensity (ln)” value was 8.02 ± 0.33.
“ATAAAAAACAGTGGCACACATTATGTATCCACCTTT [CACACA_site5958]” was tested, and the “gcPBM binding intensity (ln)” value was 8.21 ± 0.61.
In the case of “ATGCATATAATTATATGTACATATAAGAAATATATA [XGTACX_site517]”, the “gcPBM binding intensity (ln)” value is reported as 7.83 ± 0.28.
In the case of “CATTTATTATGATAAAGTACTTAAATTAATAGATAA [XGTACX_site3566]”, the “gcPBM binding intensity (ln)” value is reported as 7.68 ± 0.37.
With “TTTTGAAAGTTTTTGTGTCCACATATATTTATATAT [XGTACX_site6563]” the “gcPBM binding intensity (ln)” value was 8.01 ± 0.18.
With “TTTATTTATTACTAAAGTACTAAATCATATAATTAT [XGTACX_site3654]” the “gcPBM binding intensity (ln)” value was 7.46 ± 0.47.
With “GTTTAAAGTTGAACAAGTACACATTTATATAAGGCA [XGTACX_site351]” the “gcPBM binding intensity (ln)” value was 7.99 ± 0.41.
With “TTTAATAAAAAAATTAAAAATAAAGAAAAAAAAAAA [CACACA_negctrl_site1464]” the “gcPBM binding intensity (ln)” value was 8.36 ± 0.64.
“AAATATATATAAAACTCACACATTATCTTATAACCA [CACACA_site5268]” was tested, and the “gcPBM binding intensity (ln)” value was 7.83 ± 0.23.
In the case of “TTAAATAAATATAAGTGTACATACACACTTTACAAT [XGTACX_site6348]”, the “gcPBM binding intensity (ln)” value is reported as 7.62 ± 0.26.
In the case of “GCATATGTTCAGCGTTGTACATAAAAAAAAACATAT [XGTACX_site5974]”, the “gcPBM binding intensity (ln)” value is reported as 8.13 ± 0.49.
In the case of “GCGTAATCTATTTGCACACTTATTTGTTCTTAAAAA [CACACA_site672]”, the “gcPBM binding intensity (ln)” value is reported as 9.915 ± 0.049.
For “AAAAAATAATATTGTACACACATAAATTCTTTGTCA [CACACA_site5187]”, the “gcPBM binding intensity (ln)” value was 7.76 ± 0.33.
With “ATGTATGGAAATTTTACACACAAGAGTAGTTTAAAA [CACACA_site1710]” the “gcPBM binding intensity (ln)” value was 7.61 ± 0.66.
With “TATGTGTATACAATATGTACATATGTTAACTTGTAT [XGTACX_site872]” the “gcPBM binding intensity (ln)” value was 7.97 ± 0.62.
With “TGAGATAACAAAAGTTGTACTTTTTTTTTTTTTTTT [XGTACX_site3004]” the “gcPBM binding intensity (ln)” value was 8.73 ± 0.23.
In the case of “AAATTTAAAATAAGTAGTACATAATATAAATAAATA [XGTACX_site3592]”, the “gcPBM binding intensity (ln)” value is reported as 7.71 ± 0.47.
In the case of “TAATTGAGCAAATGAGTGCACAGCATAAAGTATAGT [GTGCAC_site9497]”, the “gcPBM binding intensity (ln)” value is reported as 10.3 ± 0.61.
For “TATAAAAGAAACTATACACACATATTTTAAATATTT [CACACA_site2753]”, the “gcPBM binding intensity (ln)” value was 7.54 ± 0.7.
For “GTACTTGTATTATGCACACATATAATTAAACATATA [CACACA_site3312]”, the “gcPBM binding intensity (ln)” value was 10.1 ± 0.46.
For “AAATTTATTTCTGTGTGTCCACAAAAAAAAATCTTT [XGTACX_site691]”, the “gcPBM binding intensity (ln)” value was 7.76 ± 0.4.
In the case of “TAAGCCTTTCTATTATGTACTTATTAAAACATGTAG [XGTACX_site8022]”, the “gcPBM binding intensity (ln)” value is reported as 8.035 ± 0.064.
For “CTTATATTAAAACACACACACGCACAAAACAGAAAT [CACACA_site1462]”, the “gcPBM binding intensity (ln)” value was 8.63 ± 0.42.
In the case of “TTTTTTTTTTTCAATAGTACTTTCCATTTACATATA [XGTACX_site3889]”, the “gcPBM binding intensity (ln)” value is reported as 7.99 ± 0.57.
In the case of “AAAAAAAATAATATTGTACACACATAAATTCTTTGT [CACACA_site8654]”, the “gcPBM binding intensity (ln)” value is reported as 7.66 ± 0.38.
With “TTTTATAAATACACACGTACGTGTGCATAACGTTTT [XGTACX_site3199]” the “gcPBM binding intensity (ln)” value was 9.465 ± 0.092.
With “TACTTTTTAAAAATGTTTTATATAATAAAAAGATAT [CACACA_negctrl_site678]” the “gcPBM binding intensity (ln)” value was 7.7 ± 0.59.
With “ATTATAAACCAGAATGCATGTAGATGAATCTTTTCT [TGCATGCA_site284]” the “gcPBM binding intensity (ln)” value was 7.63 ± 0.65.
In the case of “TAAAAATATAAAACATGTACATATATGCATATATTT [XGTACX_site8093]”, the “gcPBM binding intensity (ln)” value is reported as 7.72 ± 0.58.
For “ATATCATAAGTAGAAACACACAATTAGATTTTTTCC [CACACA_site2353]”, the “gcPBM binding intensity (ln)” value was 7.28 ± 0.83.
“AAAATATAATATAATGCACACATAAAAAAAAAATCA [CACACA_site7922]” was tested, and the “gcPBM binding intensity (ln)” value was 10.8 ± 0.64.
In the case of “TATCTGTAAATGGACACACACATATATATATATATA [CACACA_site5926]”, the “gcPBM binding intensity (ln)” value is reported as 9.53 ± 0.75.
“TATATATATAAAAATACACACATGAATGAATATATA [CACACA_site419]” was tested, and the “gcPBM binding intensity (ln)” value was 8.29 ± 0.4.
In the case of “TCTTTATTATTCGCCACACACATATATATATATATA [CACACA_site3077]”, the “gcPBM binding intensity (ln)” value is reported as 9.36 ± 0.071.
With “TTTTAAAAAAAATAAAAAATAAACAATAATAAATAA [CACACA_negctrl_site721]” the “gcPBM binding intensity (ln)” value was 7.42 ± 0.59.
For “GGGGGCTTTTATAAAAGTACAAAATGAATAAAAATT [XGTACX_site2393]”, the “gcPBM binding intensity (ln)” value was 9.22 ± 0.57.
“TATACTCATAAATACACACACATATATATATATATA [CACACA_site5822]” was tested, and the “gcPBM binding intensity (ln)” value was 9.42 ± 0.45.
With “TATACATACCCACCCACACACAAAAAAAAAAAAAAA [CACACA_site4632]” the “gcPBM binding intensity (ln)” value was 8.31 ± 0.55.
“GGGGACGCGGGTGGGGGTACTCACACTATGCAAAAT [XGTACX_site7745]” was tested, and the “gcPBM binding intensity (ln)” value was 9.92 ± 0.085.
